According to paper PMC6143588, “A variant NuRD complex containing PWWP2A/B excludes MBD2/3 to regulate transcription at active genes” (Nature Communications, 2018):
These are yes or no findings as the source states them, for the method shown. For part of these data: Binding seen in cells or lysates may run through a third protein. Some entries that bind do so weakly or less than the wild type. For part of these data: Sequences can lack the tags named with a protein. Values belong to the molecule of their own block, whether it stands above or below them.

The chains behind the UniProt entries cited, without tags or fusion partners. Residues count along the entry.
His10-Flag3-TEV-MTA1 162-546 (Q13330, residues 162-546): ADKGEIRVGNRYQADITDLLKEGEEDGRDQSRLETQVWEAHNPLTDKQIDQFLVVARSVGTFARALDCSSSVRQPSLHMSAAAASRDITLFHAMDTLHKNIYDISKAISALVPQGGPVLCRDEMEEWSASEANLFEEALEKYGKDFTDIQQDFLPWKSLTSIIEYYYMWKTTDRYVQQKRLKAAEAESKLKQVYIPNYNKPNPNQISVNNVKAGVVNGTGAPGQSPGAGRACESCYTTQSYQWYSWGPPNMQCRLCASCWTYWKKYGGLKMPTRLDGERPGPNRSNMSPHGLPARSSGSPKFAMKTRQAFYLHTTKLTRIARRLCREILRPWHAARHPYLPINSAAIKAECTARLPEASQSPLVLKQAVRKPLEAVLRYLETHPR
His10-Flag3-TEV-MTA1 162-354 (Q13330, residues 162-354): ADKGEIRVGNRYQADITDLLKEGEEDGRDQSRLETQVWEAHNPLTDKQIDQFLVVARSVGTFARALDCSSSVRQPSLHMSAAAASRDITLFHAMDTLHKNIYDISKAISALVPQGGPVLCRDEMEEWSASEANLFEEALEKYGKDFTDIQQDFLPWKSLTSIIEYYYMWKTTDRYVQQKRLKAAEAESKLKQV
UniProt Q6PDQ2: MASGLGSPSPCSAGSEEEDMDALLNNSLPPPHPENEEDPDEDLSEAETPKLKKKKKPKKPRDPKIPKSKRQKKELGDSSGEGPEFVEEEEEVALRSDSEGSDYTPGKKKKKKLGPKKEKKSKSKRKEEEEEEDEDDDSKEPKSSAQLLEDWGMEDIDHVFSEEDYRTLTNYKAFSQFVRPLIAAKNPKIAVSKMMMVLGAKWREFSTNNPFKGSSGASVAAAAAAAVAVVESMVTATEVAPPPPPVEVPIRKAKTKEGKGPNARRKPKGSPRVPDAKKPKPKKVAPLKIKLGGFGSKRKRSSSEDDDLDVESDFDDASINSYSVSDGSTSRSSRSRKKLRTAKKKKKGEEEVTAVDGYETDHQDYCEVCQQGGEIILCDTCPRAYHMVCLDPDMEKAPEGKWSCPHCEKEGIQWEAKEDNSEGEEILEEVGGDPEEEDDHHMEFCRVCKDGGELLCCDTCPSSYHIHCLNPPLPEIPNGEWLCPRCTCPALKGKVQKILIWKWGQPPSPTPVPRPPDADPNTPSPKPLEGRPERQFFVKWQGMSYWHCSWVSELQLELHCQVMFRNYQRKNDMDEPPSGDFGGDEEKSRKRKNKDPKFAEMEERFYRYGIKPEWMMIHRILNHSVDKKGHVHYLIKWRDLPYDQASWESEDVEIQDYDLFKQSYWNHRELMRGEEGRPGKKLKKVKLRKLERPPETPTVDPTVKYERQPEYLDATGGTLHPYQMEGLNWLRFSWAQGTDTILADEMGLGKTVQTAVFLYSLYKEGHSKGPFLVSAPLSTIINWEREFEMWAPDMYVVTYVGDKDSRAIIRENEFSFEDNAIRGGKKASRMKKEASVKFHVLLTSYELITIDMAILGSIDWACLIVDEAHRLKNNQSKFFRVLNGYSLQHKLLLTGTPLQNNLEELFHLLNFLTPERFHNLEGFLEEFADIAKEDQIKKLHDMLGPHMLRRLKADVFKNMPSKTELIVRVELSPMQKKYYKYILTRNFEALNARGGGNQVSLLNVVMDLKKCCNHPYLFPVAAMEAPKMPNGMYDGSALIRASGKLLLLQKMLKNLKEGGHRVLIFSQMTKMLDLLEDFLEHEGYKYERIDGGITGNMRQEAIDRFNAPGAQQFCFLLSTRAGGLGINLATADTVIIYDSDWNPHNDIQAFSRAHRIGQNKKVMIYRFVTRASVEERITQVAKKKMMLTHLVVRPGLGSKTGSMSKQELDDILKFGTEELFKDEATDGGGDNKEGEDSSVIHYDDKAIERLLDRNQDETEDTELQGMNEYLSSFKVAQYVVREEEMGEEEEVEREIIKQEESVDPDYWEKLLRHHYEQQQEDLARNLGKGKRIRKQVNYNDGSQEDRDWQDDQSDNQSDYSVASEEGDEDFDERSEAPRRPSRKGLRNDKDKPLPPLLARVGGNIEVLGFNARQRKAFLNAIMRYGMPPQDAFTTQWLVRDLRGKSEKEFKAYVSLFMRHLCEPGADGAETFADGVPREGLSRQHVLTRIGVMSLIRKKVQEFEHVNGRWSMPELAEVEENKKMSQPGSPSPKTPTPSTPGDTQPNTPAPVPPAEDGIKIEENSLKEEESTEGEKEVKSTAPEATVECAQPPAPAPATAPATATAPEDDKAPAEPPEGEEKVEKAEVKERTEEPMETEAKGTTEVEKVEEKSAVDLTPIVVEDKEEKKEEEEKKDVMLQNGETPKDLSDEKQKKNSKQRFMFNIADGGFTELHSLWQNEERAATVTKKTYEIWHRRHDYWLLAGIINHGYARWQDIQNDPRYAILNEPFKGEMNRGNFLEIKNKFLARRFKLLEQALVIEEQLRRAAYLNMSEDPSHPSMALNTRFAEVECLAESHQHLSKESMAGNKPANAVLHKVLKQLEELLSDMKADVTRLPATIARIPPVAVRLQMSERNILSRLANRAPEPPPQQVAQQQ
UniProt O09106: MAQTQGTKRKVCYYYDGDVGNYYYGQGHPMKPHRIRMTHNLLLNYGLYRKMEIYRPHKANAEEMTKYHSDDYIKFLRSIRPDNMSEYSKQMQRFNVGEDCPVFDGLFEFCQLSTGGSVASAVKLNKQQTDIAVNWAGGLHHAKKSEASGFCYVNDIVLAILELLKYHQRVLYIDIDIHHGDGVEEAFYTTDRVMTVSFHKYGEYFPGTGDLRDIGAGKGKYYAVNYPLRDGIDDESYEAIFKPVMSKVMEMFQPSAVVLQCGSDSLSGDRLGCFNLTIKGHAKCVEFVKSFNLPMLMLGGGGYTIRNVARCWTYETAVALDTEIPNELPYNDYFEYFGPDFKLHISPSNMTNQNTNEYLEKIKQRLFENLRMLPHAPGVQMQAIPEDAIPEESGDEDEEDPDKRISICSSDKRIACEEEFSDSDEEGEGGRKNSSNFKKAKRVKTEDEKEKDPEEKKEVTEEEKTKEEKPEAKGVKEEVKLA
UniProt Q13547: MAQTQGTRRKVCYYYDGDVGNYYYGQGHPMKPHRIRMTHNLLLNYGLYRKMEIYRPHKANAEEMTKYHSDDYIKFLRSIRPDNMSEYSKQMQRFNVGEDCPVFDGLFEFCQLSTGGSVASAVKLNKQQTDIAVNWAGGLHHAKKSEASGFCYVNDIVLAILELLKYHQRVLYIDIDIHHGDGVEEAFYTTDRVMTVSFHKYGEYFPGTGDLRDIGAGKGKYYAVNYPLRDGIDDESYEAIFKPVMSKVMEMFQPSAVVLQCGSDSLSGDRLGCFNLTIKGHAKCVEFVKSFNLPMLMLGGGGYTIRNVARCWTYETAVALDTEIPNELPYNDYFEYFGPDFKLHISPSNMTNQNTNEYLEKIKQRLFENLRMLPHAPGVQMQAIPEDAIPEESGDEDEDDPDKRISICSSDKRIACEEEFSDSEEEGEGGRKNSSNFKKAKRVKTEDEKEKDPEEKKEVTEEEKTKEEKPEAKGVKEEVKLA
UniProt P70288: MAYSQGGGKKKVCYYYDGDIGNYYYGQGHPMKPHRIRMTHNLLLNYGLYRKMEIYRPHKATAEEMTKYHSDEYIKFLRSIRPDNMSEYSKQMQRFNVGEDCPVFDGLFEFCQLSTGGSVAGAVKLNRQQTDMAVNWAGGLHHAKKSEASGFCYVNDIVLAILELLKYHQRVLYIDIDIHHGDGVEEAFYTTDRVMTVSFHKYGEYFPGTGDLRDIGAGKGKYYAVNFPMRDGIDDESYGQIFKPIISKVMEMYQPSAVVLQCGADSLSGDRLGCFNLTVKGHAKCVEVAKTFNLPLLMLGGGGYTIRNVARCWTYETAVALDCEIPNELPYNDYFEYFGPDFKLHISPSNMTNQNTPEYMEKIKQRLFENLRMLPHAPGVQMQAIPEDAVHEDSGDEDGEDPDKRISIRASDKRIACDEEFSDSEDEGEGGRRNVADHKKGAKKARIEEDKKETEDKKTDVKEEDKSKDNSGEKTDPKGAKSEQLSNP
UniProt Q8K4B0: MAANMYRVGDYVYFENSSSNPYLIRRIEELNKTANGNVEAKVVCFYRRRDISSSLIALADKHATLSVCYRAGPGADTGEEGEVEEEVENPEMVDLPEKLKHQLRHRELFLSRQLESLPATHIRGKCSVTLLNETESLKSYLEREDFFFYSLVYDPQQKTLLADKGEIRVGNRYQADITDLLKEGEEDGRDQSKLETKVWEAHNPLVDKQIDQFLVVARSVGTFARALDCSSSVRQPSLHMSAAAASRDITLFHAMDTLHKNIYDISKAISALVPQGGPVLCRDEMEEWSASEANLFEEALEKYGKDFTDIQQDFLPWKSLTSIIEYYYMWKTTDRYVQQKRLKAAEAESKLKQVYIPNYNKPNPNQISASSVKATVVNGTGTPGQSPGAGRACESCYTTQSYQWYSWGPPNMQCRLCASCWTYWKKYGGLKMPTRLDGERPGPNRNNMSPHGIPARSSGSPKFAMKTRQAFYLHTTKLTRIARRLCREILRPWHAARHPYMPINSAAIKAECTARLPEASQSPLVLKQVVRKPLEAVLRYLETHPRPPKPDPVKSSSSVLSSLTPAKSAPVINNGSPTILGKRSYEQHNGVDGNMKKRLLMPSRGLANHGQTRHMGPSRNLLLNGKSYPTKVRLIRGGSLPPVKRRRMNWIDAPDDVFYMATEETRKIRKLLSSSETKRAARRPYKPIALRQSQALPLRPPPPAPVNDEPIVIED

How the values were obtained:
[1] = biological target: T1, Flag-2xStrepII (FS2) tagged full-length PWWP2A (UniProt Q96N64); assay: co-IP; anti-Flag M2 affinity gel, 0.5 mg benzonase-treated mESC nuclear extract, 3 h at 4 °C; 8-10 washes in 25 mM Tris pH 7.5, 300 mM NaCl, 0.2% NP-40; western blot
T1 sequence: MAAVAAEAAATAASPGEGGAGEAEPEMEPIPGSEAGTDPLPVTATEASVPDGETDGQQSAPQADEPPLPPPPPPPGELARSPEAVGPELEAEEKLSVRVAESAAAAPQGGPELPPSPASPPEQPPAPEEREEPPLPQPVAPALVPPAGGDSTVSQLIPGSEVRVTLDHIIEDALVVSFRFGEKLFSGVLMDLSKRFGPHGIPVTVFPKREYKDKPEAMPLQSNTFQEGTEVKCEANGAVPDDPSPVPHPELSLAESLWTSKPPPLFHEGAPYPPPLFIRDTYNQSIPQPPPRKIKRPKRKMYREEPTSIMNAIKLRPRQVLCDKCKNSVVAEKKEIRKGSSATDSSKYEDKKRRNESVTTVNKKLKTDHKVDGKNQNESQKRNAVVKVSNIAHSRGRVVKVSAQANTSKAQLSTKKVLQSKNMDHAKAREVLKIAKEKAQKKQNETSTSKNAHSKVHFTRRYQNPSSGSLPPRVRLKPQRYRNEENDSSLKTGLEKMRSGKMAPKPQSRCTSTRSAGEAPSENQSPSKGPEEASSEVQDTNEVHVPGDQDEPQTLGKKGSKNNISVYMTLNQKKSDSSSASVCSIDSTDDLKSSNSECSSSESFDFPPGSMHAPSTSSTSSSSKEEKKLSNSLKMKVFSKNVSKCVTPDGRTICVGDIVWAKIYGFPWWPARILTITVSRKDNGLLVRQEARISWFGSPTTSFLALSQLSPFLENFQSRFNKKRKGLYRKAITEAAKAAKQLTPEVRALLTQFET

FS2-PWWP2B = biological target: T2, FS2-PWWP2B (UniProt Q6NUJ5); assay: as above
T2 sequence: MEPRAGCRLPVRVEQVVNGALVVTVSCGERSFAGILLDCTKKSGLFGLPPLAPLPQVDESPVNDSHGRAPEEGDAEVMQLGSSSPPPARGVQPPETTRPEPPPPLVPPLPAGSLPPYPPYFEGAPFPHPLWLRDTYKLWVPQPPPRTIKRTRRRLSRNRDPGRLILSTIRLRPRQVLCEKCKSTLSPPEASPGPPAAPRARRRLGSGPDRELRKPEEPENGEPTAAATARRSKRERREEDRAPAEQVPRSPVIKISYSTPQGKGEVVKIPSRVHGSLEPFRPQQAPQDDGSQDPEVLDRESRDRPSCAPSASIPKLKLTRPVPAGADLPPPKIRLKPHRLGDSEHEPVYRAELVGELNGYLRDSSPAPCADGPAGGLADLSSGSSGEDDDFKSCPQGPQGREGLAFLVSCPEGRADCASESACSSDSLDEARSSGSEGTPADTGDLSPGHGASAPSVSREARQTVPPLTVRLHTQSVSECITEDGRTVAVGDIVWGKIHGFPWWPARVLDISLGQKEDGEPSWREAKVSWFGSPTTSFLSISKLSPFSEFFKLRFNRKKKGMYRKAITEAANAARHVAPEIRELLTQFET

FS2-PWWP2A 383–755 = biological target: T3, FS2-PWWP2A 383–755 (UniProt Q96N64); assay: as above
T3 sequence: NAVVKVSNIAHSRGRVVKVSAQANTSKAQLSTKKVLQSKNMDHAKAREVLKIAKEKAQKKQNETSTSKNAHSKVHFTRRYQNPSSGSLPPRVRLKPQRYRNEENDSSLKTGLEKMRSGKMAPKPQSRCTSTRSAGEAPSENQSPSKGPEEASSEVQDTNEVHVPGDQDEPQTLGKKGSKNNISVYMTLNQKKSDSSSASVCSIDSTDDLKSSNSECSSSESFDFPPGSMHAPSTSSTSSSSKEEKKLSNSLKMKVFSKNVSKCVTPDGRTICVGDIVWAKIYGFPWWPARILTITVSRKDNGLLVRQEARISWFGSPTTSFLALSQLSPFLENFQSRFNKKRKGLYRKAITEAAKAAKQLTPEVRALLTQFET

[2] = biological target: His10-Flag3-TEV-MTA1 162-354 (UniProt Q13330); assay: co-IP + SEC; co-expression in HEK293F of His10-Flag3-TEV-MTA1 162-354 with untagged HDAC1, MBD3 and PWWP2A 1-373; FLAG resin, TEV cleavage, Superdex S200 gel filtration separates two complexes; SDS-PAGE (coomassie)
[3] = biological target: His10-Flag3-TEV-MTA1 162-546 (UniProt Q13330); assay: co-IP + SEC; co-expression in HEK293F of His10-Flag3-TEV-MTA1 162-546 with untagged HDAC1, RBBP4 and PWWP2A 1-373; FLAG resin, TEV cleavage, Superdex S200 in 25 mM Tris-Cl pH 7.5, 50 mM potassium acetate, 0.5 mM TCEP; SDS-PAGE
[4] = biological target: T1, Flag-2xStrepII (FS2) tagged full-length PWWP2A; assay: SEC; nuclear extract of E14 cells stably expressing FS2-PWWP2A, benzonase-treated, on Superose 6 10/300 in 20 mM Tris pH 7.5, 300 mM NaCl; fractions immunoblotted
FS2-PWWP2A 148–649 = biological target: T4, FS2-PWWP2A 148–649 (UniProt Q96N64); assay: co-IP; anti-Flag M2 affinity gel, 0.5 mg benzonase-treated mESC nuclear extract, 3 h at 4 °C; 8-10 washes in 25 mM Tris pH 7.5, 300 mM NaCl, 0.2% NP-40; western blot
T4 sequence: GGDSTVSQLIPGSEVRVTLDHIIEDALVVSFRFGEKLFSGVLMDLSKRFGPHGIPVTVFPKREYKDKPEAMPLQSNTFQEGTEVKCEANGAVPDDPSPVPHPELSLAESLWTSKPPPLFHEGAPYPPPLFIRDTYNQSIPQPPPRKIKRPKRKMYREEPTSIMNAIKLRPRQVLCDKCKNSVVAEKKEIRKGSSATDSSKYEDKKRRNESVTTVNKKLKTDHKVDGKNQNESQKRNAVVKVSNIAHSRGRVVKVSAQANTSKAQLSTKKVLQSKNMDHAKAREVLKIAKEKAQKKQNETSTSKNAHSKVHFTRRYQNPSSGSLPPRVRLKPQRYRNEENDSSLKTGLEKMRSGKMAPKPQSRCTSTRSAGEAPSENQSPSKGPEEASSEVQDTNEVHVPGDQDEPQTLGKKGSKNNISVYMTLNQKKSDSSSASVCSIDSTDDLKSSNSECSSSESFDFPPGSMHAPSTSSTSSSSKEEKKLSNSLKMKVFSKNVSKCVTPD

FS2-PWWP2A 148–373 = biological target: T5, FS2-PWWP2A 148–373 (UniProt Q96N64); assay: as above
T5 sequence: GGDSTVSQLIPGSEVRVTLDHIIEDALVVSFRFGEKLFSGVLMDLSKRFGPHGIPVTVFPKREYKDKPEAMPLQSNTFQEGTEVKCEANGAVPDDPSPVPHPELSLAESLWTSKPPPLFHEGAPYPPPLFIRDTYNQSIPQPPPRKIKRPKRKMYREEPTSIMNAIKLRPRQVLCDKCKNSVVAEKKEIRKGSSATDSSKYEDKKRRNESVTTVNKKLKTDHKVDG

FS2-PWWP2A 1–373 = biological target: T6, FS2-PWWP2A 1–373 (UniProt Q96N64); assay: as above
T6 sequence: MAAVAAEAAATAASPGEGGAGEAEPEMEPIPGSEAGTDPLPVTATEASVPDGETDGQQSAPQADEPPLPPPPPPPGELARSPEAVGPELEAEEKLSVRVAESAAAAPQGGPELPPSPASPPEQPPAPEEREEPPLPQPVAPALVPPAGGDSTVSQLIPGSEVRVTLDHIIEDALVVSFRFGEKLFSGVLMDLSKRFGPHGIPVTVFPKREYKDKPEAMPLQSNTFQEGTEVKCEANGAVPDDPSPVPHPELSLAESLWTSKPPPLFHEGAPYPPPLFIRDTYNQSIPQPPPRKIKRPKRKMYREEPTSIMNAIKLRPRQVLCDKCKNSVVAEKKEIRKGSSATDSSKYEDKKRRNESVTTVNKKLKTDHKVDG

- binding [1]: no binding
- binding (FS2-PWWP2B): no binding
Molecule: CHD4, endogenous in mESCs (from UniProt Q6PDQ2 1-1915) (enzyme)

- binding (FS2-PWWP2B): binds
- binding (FS2-PWWP2A 383–755): no binding
Molecule: HDAC1, endogenous in mESCs (from UniProt O09106 1-482) (enzyme)

- binding [2]: binds
- binding [3]: binds
Molecule: HDAC1, untagged, co-expressed in HEK293F cells (from UniProt Q13547 1-482) (enzyme)

- binding [1]: binds
Molecule: HDAC2, endogenous in mESCs (from UniProt P70288 1-488) (enzyme)

- binding [4]: binds
- binding (FS2-PWWP2A 148–649): binds
- binding [1]: binds
- binding (FS2-PWWP2B): binds
- binding (FS2-PWWP2A 148–373): binds
- binding (FS2-PWWP2A 1–373): binds
- binding (FS2-PWWP2A 383–755): no binding
Molecule: MTA1, endogenous in mESCs (from UniProt Q8K4B0 1-715)

- binding [2]: binds
B1: PWWP2A1–373, untagged, co-expressed in HEK293F cells (domain or fragment, UniProt Q96N64 1-373, looked up)
chain: T6 sequence
notes: source: HEK293F, co-transfected, co-purified with FLAG-MTA1 (FLAG resin, gel filtration)
